Data reported in US6583155B2, “Method for treating allergies using substituted pyrazoles” (priority 2000, dated 2003).

molecular target: Recombinant human cathepsin S (CatS) (Homo sapiens, UniProt P25774); assay: biochemical

`Cn1c(=O)n(C2CCN(CCCn3nc(-c4ccc(Cl)c(Cl)c4)c4c3CCN(C(N)=O)C4)CC2)c2ccccc21` [Example 36, 3-(3,4-Dichloro-phenyl)-1-{3-[4-(3-methyl-2-oxo-2,3-dihydro-benzoimidazol-1-yl)-piperidin-1-yl]-propyl}-1,4,6,7-tetrahydro-pyrazolo[4,3-c]pyridine-5-carboxylic Acid Amide] and `Cn1c(=O)n(C2CCN(CCCn3nc(-c4ccc(Cl)c(Cl)c4)c4c3CCN(C(N)=O)C4)CC2)c2cc(Cl)ccc21` [Example 40, 1-{3-[4-(6-Chloro-3-methyl-2-oxo-2,3-dihydro-benzoimidazol-1-yl)-piperidin-1-yl]-propyl}-3-(3,4-dichloro-phenyl)-1,4,6,7-tetrahydro-pyrazolo[4,3-c]pyridine-5-carboxylic Acid Amide] are the same in IC50: 40 nM for the first, 40 nM for the second.

Going from `CS(=O)(=O)N1CCc2c(c(-c3ccc(C(F)(F)F)cc3)nn2CC(O)CN2CCC(n3c(=O)n(CC#N)c4ccccc43)CC2)C1` (centres unmarked) [Example 37, [3-(1-{2-Hydroxy-3-[5-methanesulfonyl-3-(4-trifluoromethyl-phenyl)-4,5,6,7-tetrahydro-pyrazolo[4,3-c]pyridin-1-yl]-propyl}-piperidin-4-yl)-2-oxo-2,3-dihydro-benzoimidazol-1-yl]-acetonitrile] to `CCOC(=O)Cn1c(=O)n(C2CCN(CC(O)Cn3nc(-c4ccc(C(F)(F)F)cc4)c4c3CCN(S(C)(=O)=O)C4)CC2)c2ccccc21` (centres unmarked) [Example 38, [3-(1-{2-Hydroxy-3-[5-methanesulfonyl-3-(4-trifluoromethyl-phenyl)-4,5,6,7-tetrahydro-pyrazolo[4,3-c]pyridin-1-yl]-propyl}-piperidin-4-yl)-2-oxo-2,3-dihydro-benzoimidazol-1-yl]-acetic Acid Ethyl Ester], the IC50 falls from 50 nM to 20 nM (2.5-fold).

Compared with `Cc1ccc2c(c1)n(C1CCN(CC(O)Cn3nc(-c4ccc(C(F)(F)F)cc4)c4c3CCN(S(C)(=O)=O)C4)CC1)c(=O)n2C` (centres unmarked) [Example 41, 3-(1-{2-Hydroxy-3-[5-methanesulfonyl-3-(4-trifluoromethyl-phenyl)-4,5,6,7-tetrahydro-pyrazolo[4,3-c]pyridin-1-yl]-propyl}-piperidin-4-yl)-1,5-dimethyl-1,3-dihydro-benzoimidazol-2-one], `COc1ccc2c(n1)n(C1CCN(CC(O)Cn3nc(-c4ccc(C(F)(F)F)cc4)c4c3CCN(S(C)(=O)=O)C4)CC1)c(=O)n2C` (centres unmarked) [Example 45, 3-(1-{2-Hydroxy-3-[5-methanesulfonyl-3-(4-trifluoromethyl-phenyl)-4,5,6,7-tetrahydro-pyrazolo[4,3-c]pyridin-1-yl]-propyl}-piperidin-4-yl)-5-methoxy-1-methyl-1,3-dihydro-imidazo[4,5-b]pyridin-2-one] is 1.5-fold lower in IC50: 30 nM for the first, 20 nM for the second. The second is the more potent here.

Going from `CS(=O)(=O)N1CCc2c(c(-c3ccc(C(F)(F)F)cc3)nn2CC(O)CN2CCC(n3c(=O)[nH]c4cccnc43)CC2)C1` (centres unmarked) [Example 42, 3-(1-{2-Hydroxy-3-[5-methanesulfonyl-3-(4-trifluoromethyl-phenyl)-4,5,6,7-tetrahydro-pyrazolo[4,3-c]pyridin-1-yl]-propyl}-piperidin-4-yl)-1,3-dihydro-imidazo[4,5-b]pyridin-2-one] to `CN(C)c1ccc2[nH]c(=O)n(C3CCN(CC(O)Cn4nc(-c5ccc(C(F)(F)F)cc5)c5c4CCN(S(C)(=O)=O)C5)CC3)c2n1` (centres unmarked) [Example 46, 5-Dimethylamino-3-(1-{2-hydroxy-3-[5-methanesulfonyl-3-(4-trifluoromethylphenyl)-4,5,6,7-tetrahydro-pyrazolo[4,3-c]pyridin-1-yl]-propyl}-piperidin4-yl)-1,3-dihydro-imidazo[4,5-b]pyridin-2-one], the IC50 falls from 80 nM to 30 nM (2.7-fold). The second is the more potent here.

Going from `COc1ccc2[nH]c(=O)n(C3CCN(CC(O)Cn4nc(-c5ccc(Br)cc5)c5c4CCN(S(C)(=O)=O)C5)CC3)c2n1` (centres unmarked) [Example 43, 3-(1-{3-[3-(4-Bromo-phenyl)-5-methanesulfonyl-4,5,6,7-tetrahydro-pyrazolo[4,3-c]pyridin-1-yl]-2-hydroxy-propyl}-piperidin-4-yl)-5-methoxy-1,3-dihydro-imidazo[4,5-b]pyridin-2-one] to `COc1ccc2[nH]c(=O)n(C3CCN(CC(O)Cn4nc(-c5ccc(Br)cc5)c5c4CCN(C(N)=O)C5)CC3)c2n1` (centres unmarked) [Example 44, 3-(4-Bromo-phenyl)-1-{2-hydroxy-3-[4-(5-methoxy-2-oxo-1,2-dihydro-imidazo[4,5-b]pyridin-3-yl)-piperidin-1-yl]-propyl}-1,4,6,7-tetrahydro-pyrazolo[4,3-c]pyridine-5-carboxylic Acid Amide], the IC50 rises from 20 nM to 30 nM (1.5-fold).

In the case of `Cc1cc(-c2nn(CC(O)CN3CCC(n4c(=O)[nH]c5ccc(Cl)cc54)CC3)c3c2CN(S(C)(=O)=O)CC3)ccc1Cl` (centres unmarked) [Example 53, 6-Chloro-1-(1-{3-[3-(4-chloro-3-methyl-phenyl)-5-methanesulfonyl-4,5,6,7-tetrahydro-pyrazolo[4,3-c]pyridin-1-yl]-2-hydroxy-propyl}-piperidin4-yl)-1,3-dihydro-benzoimidazol-2-one], the IC50 is reported as 50 nM.
